Laboratory results published in the supplement of paper PMC11417369.
Some of the results follow.

System: PfAP2-HC AP2 domain (GST-tagged)
Experiment: gcPBM binding intensity (ln(normalized median fluorescence intensity)); higher = stronger DNA binding
How it was run: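 An Agilent 4 × 180k array carrying primer-extended double-stranded 36-bp intergenic genomic probes and negative controls received GST-tagged P. falciparum DNA-binding domains expressed in E. coli, about 25 μg on average, for 1 h. The binding buffer contained 1× PBS, 1% milk, 0.2 mg/ml BSA, 0.5% salmon testes DNA and 0.03% Triton X-100. Binding intensity is the top Masliner-normalised natural-log median intensity across replicate spots of either probe orientation, read after Alexa488 anti-GST antibody staining and a 488 nm scan.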

Row | Sequence | gcPBM binding intensity (ln)
1 | AATATGGAATGAAATAACAATCGGGAGTATATTACC [CACACA_negctrl_site93] | 9.84
2 | TATATATATGTTCTTACACACACGAATATATATATG [CACACA_site3304] | 9.92
3 | ACATATTGTAGATATTGTACATATTGTGTATATATT [XGTACX_site7620] | 9.8
4 | AATAGAATAATCCTTACACACACACCCACACGAATA [CACACA_site8053] | 10.4
5 | AACCAATATGCGTATACACACATAAATATAAATATA [CACACA_site3780] | 9.95
6 | TGTATAAAAAGAAAAAATCGTATGTGTTATCAAAAA [GTGCAC_negctrl_site490] | 9.58
7 | AACCAGTTGATGTGTACACATATAGTAATAATTTTA [CACACA_site5564] | 9.89
8 | GTATTAATTTTAAGGTGTACGCAAAAAATTTAATTT [XGTACX_site718] | 9.54
9 | TTTTTTTTTTTTTGAACACACATTATTAATTTTTAT [CACACA_site308] | 9.63
10 | ATATATTTTTTTTATACATGCAATGCATTTACGTTG [TGCATGCA_site565] | 9.99
11 | TTTTTTATATATTAGGAATTTATAAAATTAGAAGGT [GTGCAC_negctrl_site617] | 9.55
12 | TTATTATATACAAAATGTACACAGAATAATTTGAAT [XGTACX_site2314] | 9.62
13 | ATATATATATATATATGTACATAATATATTATATAT [XGTACX_site924] | 9.68
14 | TTTTTTTTTTTTTTGGTGCAGTTCACATATTATATA [GTGCAC_site9996] | 9.48
15 | TTTTGAATATATTAAATAAATTAAAAATCTACAAAC [GTGCAC_negctrl_site622] | 9.36
16 | AGATCATAATATTATACACACATTATATATCTGTAA [CACACA_site4925] | 9.81
17 | TAATAAATTCAAAACATAAAAAGGAAAAAAAAAAAA [CACACA_negctrl_site1330] | 9.44
18 | AAAATATTTAATAGAAGTACACATGTATATATACAT [XGTACX_site8942] | 9.77
19 | TGTGTAAGCACATACAAACACACAACCTTATTTTTA [CACACA_site2187] | 9.88
20 | TATATTAACAAAATGGTGCAATAATTTCTATATTGT [GTGCAC_site9430] | 9.58
21 | TTATTATATTAAAAGAGGACACATTTATTTTTTTTT [XGTACX_site1241] | 9.41
22 | AAGATTAAACATTGCACACAGAAATATATTTTCTAT [CACACA_site2374] | 9.81

Row | Sequence | gcPBM binding intensity (ln)
23 | TTTCAATGTGACACGTGTCCGTAAAATTACATAATT [XGTACX_site7073] | 9.7
24 | ATTAATAAAAGATAAAGTACAAATCGGAAAATGAAT [XGTACX_site7846] | 9.94
25 | ACAATGATAGTGTAAAGTACATATATATAAAAAAAT [XGTACX_site5928] | 10.2
26 | TGAACTCATAGGAAAACACACATATGTGCAATATAT [CACACA_site6231] | 9.78
27 | TGTTATTATTAAGACACACACACAAAAAAAAAAAAA [CACACA_site1481] | 10.5
28 | TTTATAATATGTTATACATGCAGGTACCTTTTTGTA [TGCATGCA_site746] | 9.71
29 | GAGAAATTTATACATACACACATATAAATATTATAG [CACACA_site7819] | 9.79
30 | CTTTGCATTACGAACATACACACAGAATAACTGAAA [CACACA_site3024] | 9.88
31 | TTTTTGTTAATAAGTATGCACTATCTCATTTTTGTA | 9.67
32 | ATATATTTTGGGGACTTTTTAAAAAAGAAGTATTAA [TGCATGCA_negctrl_site337] | 9.42
33 | TTTCTATTACGAACGTGTACATACATTATTCTTAAA [XGTACX_site5816] | 9.3
34 | TAGAAAAAAATAGATGCATGCAATGAATGAATAATA [TGCATGCA_site14] | 10.3
35 | TAGTAGTATTCATCCAGTACATATAAATGTATAATA [XGTACX_site7552] | 9.64
36 | CTATACTATGAAAAGTGTACGAATAGCTAGCTATTT [XGTACX_site5927] | 9.67
37 | GAGCATTACACATATACACACATATAAATAAACATA [CACACA_site7315] | 10.2
38 | TTCTTTTTTTTTTTTTTTTTTTTATAGTACAAAAAA [TGCATGCA_negctrl_site450] | 9.4
39 | ATATCAAATAGACAAACACACAAAGGAAGAGTGAAA [CACACA_site3921] | 10.2
40 | ATCTATATTATTTCTACACACATATCTATAATATGT [CACACA_site7561] | 10.2
41 | TTTTTTTTTTTGTGTGCATGTGCTAGGAAAGGTAGG [TGCATGCA_site330] | 9.65
42 | AATAATATATAAGAAAGTACAAAAAAATAAAATAAA [XGTACX_site3302] | 9.74
43 | TTTTAATGAAATATCAAAAAAATTTATGATTTCAAA [GTGCAC_negctrl_site662] | 8.97
